Source: PubChem BioAssay AID1347073 (National Center for Advancing Translational Sciences (NCATS), 2019)
Screen size: about 45,000 compounds; about 200 (0.44%) were called active. Roughly 7% stayed inconclusive and do not appear here. Calls follow the shape of the dose curve; as a rule, active = well fitted activation curve with a large enough effect; inconclusive = small, poorly fitted or top-dose-only effect; inactive = no such curve, though single readings can be large or run the other way. The list shows a part of the results.

Assay: qHTS of TDP-43 Inhibitors: NCGC Sytravon Library Screen; also: 0% is about no effect; nearly all actives have a fitted effect of over 55% in size
Settings: yeast TDP-43 toxicity rescue, BacTiter-Glo growth, 24 h; series mostly up to 46.1 µM; growth rescue (activation): at the top concentration
Procedure, shortened: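 TDP-43-expressing yeast, pregrown in raffinose, seeded at OD600 0.02 in galactose medium with compound for 24 hr at 30 deg C. Growth read by BacTiter-Glo luminescence, so rescue of toxicity appears as activation.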

Row | SMILES | growth rescue (activation)
1 | Cc1ccc(NC(=O)CN2C(=O)NC(C)(c3ccc4c(c3)OCO4)C2=O)cc1 (centres undefined) | inactive: 8.77%
2 | CCc1nnc(NC(=O)c2ccc3c(=O)n4c(nc3c2)CCCCC4)s1 | inactive: -1.71%
3 | O=S(=O)(c1ccccc1)n1nc(-c2ccc(Cl)cc2)nc1NCc1ccccc1 | inactive: 18.7%
4 | O=[N+]([O-])c1cc(/C=N/Nc2nc3ccccc3[nH]2)c(O)cc1O | inactive: -26.6%
5 | CC(=O)Nc1ccc(C(=O)CSc2nnnn2C2CCCC2)cc1 | inactive: -6.79%
6 | Cn1cccc1C(=O)NCc1ccc(S(N)(=O)=O)cc1 | inactive: 19.6%
7 | COc1ccc(CN(CC(=O)NC2CCCC2)C(=O)CCC(=O)Nc2nc(C)cs2)cc1 | inactive: 1.51%
8 | COc1cc(NC(=O)C2CCCCC2)c(OC)cc1NC(=O)c1ccccc1 | inactive: 16.7%
9 | O=C1c2ccccc2NC(c2ccncc2)N1c1ccccn1 (centres undefined) | inactive: 24.7%
10 | Cc1ccsc1C(=O)N1CCC1(C)C(=O)NS(=O)(=O)c1cccc(F)c1 (centres undefined) | inactive: 0.292%
11 | COc1ccc(C(=O)Nc2ccc(NC(=O)c3ccco3)cc2)cc1 | inactive: -12.6%
12 | Cc1cccc(C(=O)Nc2ccc(N3CCN(C(=O)c4ccco4)CC3)cc2)c1 | inactive: 17%
13 | Cc1cc(NC(=O)CSc2nc3cc(Cl)ccc3o2)no1 | inactive: 21.6%
14 | Cc1ccccc1N1CCN(C2CCCN(C(=O)CCn3cnnn3)C2)CC1 (centres undefined) | inactive: 3.06%
15 | CCCCN(C(=O)CCC(=O)Nc1cc(C)on1)C(C(=O)NC1CCCC1)c1ccc(F)cc1 (centres undefined) | inactive: 5.52%
16 | NNC(=O)Cn1cnc2ccccc21 | inactive: 11.2%
17 | COc1ccc(/C=C/C(=O)c2cc(Cl)cc(Cl)c2O)c(OC)c1 | inactive: 14.2%
18 | Cc1ccc(NC(=S)NNC(=O)c2ccccc2O)c(C)c1 | inactive: 14.1%
19 | COc1cccc(NC(=O)CN(C)CC(=O)Nc2ccc3c(c2)OCO3)c1 | inactive: 3.42%
20 | CCOC(=O)N1CCC(N(CCN(C)C)C(=S)Nc2ccc(Oc3ccccc3)cc2)CC1 | inactive: -17.7%
21 | CN(C)CCCN1C(=O)C(=O)/C(=C(/O)c2ccncc2)C1c1ccccc1 (centres undefined) | inactive: 1.64%
22 | Cc1ccc(S(=O)(=O)N(C)c2ccc(C(=O)NCc3ccccn3)cc2)cc1 | inactive: 2.83%
23 | CCCN1C(=O)/C(=C\C=C2/Sc3ccccc3N2CCO)SC1=S | inactive: 3.47%

Row | SMILES | growth rescue (activation)
24 | COC(=O)CN(C(=S)Nc1ccc(F)cc1)C1CC(=O)N(c2ccccc2)C1=O (centres undefined) | inactive: -46.4%
25 | Cc1cccc(N(C)S(=O)(=O)c2ccc3c(c2)NC(=O)CC(=O)N3)c1 | inactive: -1.81%
26 | Cc1cc(C)nc(Nc2nc(C(N)Cc3ccccc3)cs2)n1 (centres undefined) | inactive: 12.4%
27 | CCn1c(SCc2ccccc2F)nnc1-c1ccncc1 | inactive: 19.7%
28 | COc1ccc(/C=C(\C#N)C(=O)OCC(=O)N2CC(C)OC(C)C2)cc1 (centres undefined) | inactive: 1.18%
29 | Clc1ccc(OCCCCCN2CCOCC2)cc1 | inactive: 6.44%
30 | COc1ccccc1-n1nc(C)cc1N | inactive: -6.56%
31 | O=C(O)CC(c1cccc(C(F)(F)F)c1)N1CCS(=O)(=O)CC1 (centres undefined) | inactive: -11.6%
32 | COc1ccc(C(C)=O)cc1CC(=O)Nc1ccc2c(c1)CCC2 | inactive: -4.52%
33 | COc1ccc(OCC(=O)NCCNC(=O)c2ccccn2)cc1 | inactive: -2.8%
34 | Cc1ccc(C)c(N(CC(=O)NC2CCCCC2)C(=O)c2snc(C(N)=O)c2N)c1 | inactive: 15.6%
35 | CCOC(=O)C1CCCN(C(=O)c2cc(S(=O)(=O)Nc3ccccc3OC)ccc2C)C1 (centres undefined) | inactive: 18.2%
36 | COc1ccc(CN2CCNC(=O)C2CC(=O)N(C)Cc2nc(C)cs2)c(OC)c1 (centres undefined) | inactive: -3.97%
37 | CCCCS(=O)(=O)NC(=O)C1(C)CCN1C(=O)C/C=C/c1ccccc1 (centres undefined) | inactive: -2.43%
38 | CC(C)c1nnc(NC(=O)C2CCCN2C(=O)Nc2ccc(F)cc2)s1 (centres undefined) | inactive: -5.33%
39 | Cc1cccc(N2CC(C(=O)NC3CCCCCC3)CC2=O)c1C (centres undefined) | inactive: 28.2%
40 | CCOCCCn1c(=S)[nH]c2cc(C(=O)NCCCN(CC)CC)ccc2c1=O | inactive: 14.8%
41 | COc1cc(C(=O)Nc2ccc(NC(=O)c3cccc(Cl)c3)nc2)cc(OC)c1OC | inactive: 4.4%
42 | CSc1cccc(NC(=S)N2CCCN(Cc3cccc(Cl)c3)C2)c1 | inactive: 6.46%
43 | O=C(N/N=C/c1ccccc1O)C(=O)Nc1ccccn1 | inactive: 28.1%
44 | Cc1nn(Cc2ccc(C(=O)NN)cc2)c(C)c1Cl | inactive: 22.4%
45 | CSc1ccc(CN2C(=O)NC3(CCCCCCC3)C2=O)cc1 | inactive: 8.34%
46 | O=C(NCC1CCCCC1)c1ccc2nc([C@H]3C[C@H](O)[C@@H](CO)O3)[nH]c2c1 | inactive: 1.22%

Row | SMILES | growth rescue (activation)
47 | COc1ccc(N(CC(=O)NC2CCCCC2)C(=O)CCC(=O)Nc2nc(C)cs2)cc1OC | inactive: -5.07%
48 | COc1ccc(C(=O)CC(=O)c2ccccc2O)cc1OC | inactive: 9.48%
49 | Cc1cccc(-n2c(C)cc(/C=C3/C(=N)N4C(c5ccccc5)=CSC4=NC3=O)c2C)c1 | inactive: -0.464%
50 | CC(C)(C)NC(=O)COC(=O)c1ccccc1Nc1ccc(SC(F)F)cc1 | inactive: -5.26%
51 | COCCNc1nc(N)c([N+](=O)[O-])c(NCc2ccccc2)n1 | inactive: 15.9%
52 | Cc1ccc(S(=O)(=O)N/N=C\c2ccc3c(c2)OCO3)cc1C | inactive: -16.1%
53 | COc1ccc(-c2cn(-c3ccc(C)cc3)c(=O)n2CC(=O)Nc2ccc(OC)c(OC)c2)cc1 | inactive: -9.94%
54 | COc1ccc(N2CCN(CC(O)COC(c3ccccc3)c3ccccc3)CC2)cc1 (centres undefined) | inactive: 8.25%
55 | COC(=O)c1ccc(CNC(=O)C2CCC(=O)N(Cc3cccc(F)c3)C2)cc1 (centres undefined) | inactive: 10.4%
56 | O=C(N/N=C/c1ccc2c(c1)OCO2)c1ccc(NC(=O)c2ccc(F)cc2)cc1 | inactive: 11.9%
57 | Cc1cc(/C=N/N2CCN(C)CC2)c(C)n1-c1ccc(Cl)cc1 | inactive: 25.9%
58 | COc1ccc(S(=O)(=O)Nc2ccc(C)cn2)cc1 | inactive: -28.5%
59 | COc1ccc(Cc2nnc(SCC(=O)Nc3ccc(N4CCOCC4)cc3)o2)cc1 | inactive: 7.78%
60 | CC1(C(=O)Nc2cccc3c2CCCC3)CCN1C(=O)C1(c2ccccc2)CC1 (centres undefined) | inactive: 17.1%
61 | COc1ccccc1NC(=O)CN1CCN(CC(=O)Nc2ccc(C)c(F)c2)CC1 | inactive: 1.33%
62 | CCOc1ccc(NC2=CC(=O)CCC2)cc1 | inactive: -8.33%
63 | Cc1cccc(C(=O)n2cnnc2N)c1 | inactive: 6.66%
64 | CCOC(=O)c1cc(NC(=O)C2C3C=CC(O3)C2C(=O)O)cc(C(=O)OCC)c1 (centres undefined) | inactive: 1.45%
65 | O=C(CSc1nnc(Nc2ccccc2F)s1)NCC1CCCO1 (centres undefined) | inactive: 1.09%
66 | Cc1csc(NC(=O)c2cc(-c3ccncc3)nc3ccccc23)n1 | inactive: 4.7%
67 | O=Cc1cnc(N2CCCCC2)s1 | inactive: -0.698%
68 | Cc1cccnc1NC(=O)C1CCN(S(=O)(=O)c2c(C)noc2/C=C/c2ccco2)CC1 | inactive: 7.82%
69 | CC(C)n1ncc2c(C(=O)NCCOc3ccccc3F)cc(C3CC3)nc21 | inactive: 21.2%
